Experimental data as given in PubChem BioAssay AID504832 (National Center for Advancing Translational Sciences (NCATS), 2011).
Hit rate of the full screen: of about 310,000 compounds, about 18,000 (5.8%) were called active. Inconclusive means that the source gave no clear call. Such entries were picked first, then a sample of the others. Calls follow the shape of the dose curve; as a rule, active = well fitted inhibition curve with a large enough effect; inconclusive = small, poorly fitted or top-dose-only effect, or another doubt; inactive = no such curve, though single readings can be large or run the other way. Potencies of inconclusive entries are left out as doubtful fits.

Assay: Primary qHTS for delayed death inhibitors of the malarial parasite plastid, 48 hour incubation
Conditions: P. falciparum luciferase growth in erythrocytes; series mostly up to 28.7 µM; activity change, negative = inhibition: at the top concentration
Procedure, shortened: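 Cell-based growth assay: transgenic P. falciparum expressing firefly luciferase, cultured in red cells within RPMI 1640 containing 0.5% w/v Albumax, 24 mM bicarbonate and gentamycin. A drop in luciferase activity indicates inhibition.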
% is scaled to controls: 0 for no effect and ±100 for the full control effect; potency is read from the fitted curve at half-maximal effect; tags tell the direction and shape of the fitted curve.

| Structure (SMILES) | Potency | activity change, negative = inhibition |
| --- | --- | --- |
| CCCN(CC(=O)Nc1ccccc1C)C(=O)c1ccc(NC2CC2)c([N+](=O)[O-])c1 | inconclusive [inhibitor, single point] |  |
| COc1ccccc1/C=C/CN1CCC(CO)(Cc2ccccc2)CC1 | active: 11.7 µM |  |
| CCOc1cc([N+](=O)[O-])cc(/C=C2/NC(=O)N(Cc3ccccc3F)C2=O)c1O | inconclusive [inhibitor, partial curve] |  |
| CC(C)(C)OC(=O)N[C@@H](/C=C/c1ccccc1)C(=O)OC(C)(C)C | inconclusive [inhibitor, single point] |  |
| Cc1ccc(C)c(OCCCCn2cnc3ccccc3c2=O)c1 |  | inactive: -5.46% |
| Cc1ccc(C)c(NC(=S)NCc2ccc3[nH]c4c(c3c2)CCCC4)c1 | active: 13.1 µM |  |
| C[C@@H]1C=CC(=O)O[C@@H]1c1ccc(C(F)(F)F)cc1 | inconclusive [inhibitor, full curve] |  |
| CCOC(=O)N1CCN(CC(=O)Nc2ccc([N+](=O)[O-])cc2C(=O)Nc2ccccc2F)CC1 | active: 11.7 µM |  |
| Cc1ccc(-n2ncc3c(=O)n(CC(N)=O)cnc32)cc1C |  | inactive: 27.8% |
| COc1cccc(CNC(=O)CCC2CCCN(Cc3ccc4c(c3)CCO4)C2)c1 (stereo not drawn) | inconclusive [inhibitor, partial curve, poor fit] |  |
| CCCCCOc1ccc(C(=O)CCC(=O)N2CCCC2)cc1 | inconclusive [inhibitor, partial curve, poor fit] |  |
| Cc1ccccc1CCN(C(=O)c1csnn1)C(C(=O)NC1CCCC1)c1ccco1 (stereo not drawn) | inconclusive [inhibitor, single point] |  |
| COC(=O)/C(C#N)=C/c1c(N2CCN(c3cccc(Cl)c3)CC2)nc2c(C)cccn2c1=O | inconclusive [inhibitor, partial curve] |  |
| COc1ccc(-c2c(C#Cc3ccsc3)c3cc(-c4ccc5c(c4)OCO5)ccc3n2C)cc1 | inconclusive [inhibitor, single point] |  |
| COc1ccc(N2CCN(CCC3Oc4cc([N+](=O)[O-])ccc4NC3=O)CC2)cc1 (stereo not drawn) | inconclusive [inhibitor, single point] |  |
| CN(C(=O)c1ccc(NC(=O)Cc2cccc(NC(=O)C3CCN(C(=O)C4CCCCC4)CC3)c2)cc1)C1CCCC1 | inconclusive [inhibitor, partial curve, poor fit] |  |
| O=C(CSc1nnc(-c2cccs2)o1)N1CCc2ccccc21 |  | inactive: 30.1% |
| CCn1c(=N)n(CC(O)COc2cccc(C)c2)c2ccccc21 (stereo not drawn) | inconclusive [inhibitor, single point] |  |
